# Experimental data as given in patent US20260176310A1 (NAVIGO PROTEINS, published 2026).
# T1: hFAP expressed on cell surfaces (HEK293-hFAP cells; native on Wi38 cells) (human, UniProt Q12884 1-760)
# T1 construct: whole, on cells; also called cell surface-exposed hFAP
# T1 sequence (looked up): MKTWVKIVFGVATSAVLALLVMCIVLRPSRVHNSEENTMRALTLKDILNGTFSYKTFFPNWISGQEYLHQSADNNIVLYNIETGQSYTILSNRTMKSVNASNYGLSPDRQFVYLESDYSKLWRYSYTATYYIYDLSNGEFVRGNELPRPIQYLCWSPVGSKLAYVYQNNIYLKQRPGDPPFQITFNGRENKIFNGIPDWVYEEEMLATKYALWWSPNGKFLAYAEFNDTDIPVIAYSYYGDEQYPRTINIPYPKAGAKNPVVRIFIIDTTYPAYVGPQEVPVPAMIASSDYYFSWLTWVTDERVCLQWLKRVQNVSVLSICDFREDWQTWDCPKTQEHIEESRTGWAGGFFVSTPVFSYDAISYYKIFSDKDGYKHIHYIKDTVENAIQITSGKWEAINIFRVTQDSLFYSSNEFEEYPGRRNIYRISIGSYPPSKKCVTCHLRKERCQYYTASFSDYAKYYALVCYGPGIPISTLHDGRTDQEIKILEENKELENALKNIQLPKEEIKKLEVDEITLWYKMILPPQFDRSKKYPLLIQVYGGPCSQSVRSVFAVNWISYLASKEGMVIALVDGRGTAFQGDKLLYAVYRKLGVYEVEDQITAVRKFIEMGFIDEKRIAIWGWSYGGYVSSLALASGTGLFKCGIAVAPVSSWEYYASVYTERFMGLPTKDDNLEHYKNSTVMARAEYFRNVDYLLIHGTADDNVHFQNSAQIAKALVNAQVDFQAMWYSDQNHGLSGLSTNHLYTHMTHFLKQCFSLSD
# Key:
# [1] = molecular target: T1, hFAP expressed on cell surfaces …; experiment: flow cytometry titration on HEK293-hFAP cells; Affilin dilution series in 100% human serum, 0 h preincubation; detection with rabbit anti-Strep-Tag antibody and anti-rabbit IgG Alexa Fluor 488
# Procedure: (§1) Dilution series of Affilin proteins were incubated with human serum for 24 h and 0 h (control) at 37° C. HEK293-hFAP-cells were incubated with dilution series for 45 min at 4° C. Cells were centrifuged and supernatants were removed. Cells were washed with FACS blocking buffer and 100 μl/well rabbit anti-Strep-Tag antibody (GenScript; A00626), 1:300 diluted in FACS blocking buffer were added. After removal of the primary antibody goat anti-rabbit IgG Alexa Fluor 488 antibody (Invitrogen; A11008) was applied in a 1:1000 dilution in FACS blocking buffer. Flow cytometry measurement was conducted on the Guava easyCyte 5HT device from Merck-Millipore at excitation wavelength 488 nm and emission wavelength 525/30 nm.
# [2] = molecular target: T1, hFAP expressed on cell surfaces …; experiment: flow cytometry titration on HEK293-hFAP cells; Affilin dilution series preincubated 24 h at 37 °C in 100% human serum; detection with rabbit anti-Strep-Tag antibody and anti-rabbit IgG Alexa Fluor 488
# Procedure: as §1
binder,measurement,setting,value
"Affilin®-217863 (designed binder, Ubiquitin mutein) MQIFVWTEMHKRITLEVEPSDTIENVKAKIQDKEGIPPDQQHLTWKGKQLEDGRTLSDYNISEWPNLFLRLNLRAA",Kd,[1],1.14 nM
same,Kd,[2],0.89 nM
